Test results as given in the supplement of paper PMC4996465.
Viability of KB3-1 and Nalm-6 cells after 48 h of drug alone (CellTiter-Glo), 11 doses over about 4.5 log units. % of DMSO wells, lower = more cell loss; AC50 from the fitted curve, lower = more potent. No active / inactive call. Nalm-6 was screened in two runs. AC50 is listed only for well-fitted inhibitory curves. KB3-1 is a HeLa-derived carcinoma line, Nalm-6 a B-cell precursor leukaemia line.

Columns and labels:
KB3-1 = assay: viability (% of DMSO control); higher = more viable cells
Procedure: (§1)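 Eleven-dose screen of the NCATS MIPE 3 library on cells without co-treatment; CellTiter-Glo after 48 h, as % of DMSO wells.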

Nalm-6 [1] = assay: as above
Procedure: as §1

Nalm-6 [2] = assay: log AC50 of viability decrease (48 h) (log10 M); higher = less potent
Procedure: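 Eleven-dose screen of the NCATS MIPE 3 library on cells without co-treatment; CellTiter-Glo after 48 h. AC50 from the curve fit; only inhibitory curves of the better fit classes are listed.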

Structure (SMILES) | viability (KB3-1; 0.00078 µM) | viability (KB3-1; 0.00234 µM) | viability (KB3-1; 0.00702 µM) | viability (KB3-1; 0.0211 µM) | viability (KB3-1; 0.0632 µM) | viability (KB3-1; 0.19 µM) | viability (KB3-1; 0.569 µM) | viability (KB3-1; 1.71 µM) | viability (KB3-1; 5.12 µM) | viability (KB3-1; 15.4 µM) | viability (KB3-1; 46.1 µM) | viability (Nalm-6 [1]; run: 1, 0.00078 µM) | viability (Nalm-6 [1]; run: 1, 0.00234 µM) | viability (Nalm-6 [1]; run: 1, 0.00702 µM) | viability (Nalm-6 [1]; run: 1, 0.0211 µM) | viability (Nalm-6 [1]; run: 1, 0.0632 µM) | viability (Nalm-6 [1]; run: 1, 0.19 µM) | viability (Nalm-6 [1]; run: 1, 0.569 µM) | viability (Nalm-6 [1]; run: 1, 1.71 µM) | viability (Nalm-6 [1]; run: 1, 5.12 µM) | viability (Nalm-6 [1]; run: 1, 15.4 µM) | viability (Nalm-6 [1]; run: 1, 46.1 µM) | viability (Nalm-6 [1]; run: 2, 0.00078 µM) | viability (Nalm-6 [1]; run: 2, 0.00234 µM) | viability (Nalm-6 [1]; run: 2, 0.00702 µM) | viability (Nalm-6 [1]; run: 2, 0.0211 µM) | viability (Nalm-6 [1]; run: 2, 0.0632 µM) | viability (Nalm-6 [1]; run: 2, 0.19 µM) | viability (Nalm-6 [1]; run: 2, 0.569 µM) | viability (Nalm-6 [1]; run: 2, 1.71 µM) | viability (Nalm-6 [1]; run: 2, 5.12 µM) | viability (Nalm-6 [1]; run: 2, 15.4 µM) | viability (Nalm-6 [1]; run: 2, 46.1 µM) | log AC50 of viability decrease (Nalm-6 [2]; run: 1) | log AC50 of viability decrease (Nalm-6 [2]; run: 2)
CS(=O)(=O)CCNCc1ccc(-c2ccc3ncnc(Nc4ccc(OCc5cccc(F)c5)c(Cl)c4)c3c2)o1 [Lapatinib] | 106% | 109% | 105% | 111% | 110% | 104% | 103% | 107% | 97.4% | 96.3% | 3.5% | 128% | 115% | 118% | 126% | 117% | 122% | 123% | 115% | 110% | 80.7% | -0.429% | 112% | 106% | 111% | 113% | 118% | 109% | 107% | 104% | 109% | 85.7% | 0.302% | -4.68 | -4.68
COc1cc2nccc(Oc3ccc(NC(=O)NC4CC4)c(Cl)c3)c2cc1C(N)=O [Lenvatinib] | 106% | 105% | 98.1% | 103% | 104% | 101% | 101% | 98.7% | 101% | 96.4% | 59.3% | 118% | 114% | 110% | 115% | 118% | 112% | 113% | 106% | 96.3% | 93.4% | 43.6% | 107% | 104% | 107% | 102% | 106% | 103% | 98.3% | 106% | 96.7% | 99.7% | 46.2% | -4.68 | –
Cc1cccc(C#Cc2ccccc2)n1 [MPEP] | 102% | 106% | 103% | 97.4% | 100% | 94.4% | 92.2% | 102% | 95.9% | 93.4% | 85.5% | 95.8% | 107% | 102% | 107% | 102% | 85.3% | 69.5% | 63.1% | 62% | 61.5% | 53.4% | 101% | 100% | 106% | 106% | 109% | 103% | 104% | 104% | 103% | 105% | 97.3% | -6.58 | –
COc1cccc(OC)c1-c1cc(C(=O)NC2(C(=O)O)C3CC4CC(C3)CC2C4)nn1-c1ccnc2cc(Cl)ccc12 (stereo not drawn) [Meclinertant] | 105% | 104% | 103% | 107% | 101% | 101% | 101% | 98.8% | 100% | 88.8% | 75.5% | 116% | 122% | 124% | 121% | 133% | 121% | 114% | 116% | 115% | 95.9% | 33.7% | 108% | 108% | 103% | 108% | 101% | 103% | 99.6% | 100% | 93.1% | 85.3% | 21.8% | -4.68 | -4.53
